Measured values as given in PubChem BioAssay AID485344 (National Center for Advancing Translational Sciences (NCATS), 2010).
Screen size: about 340,000 compounds; about 6,900 (2%) were called active. Cut-off read from the data, not from the text of the source: active = inhibition above about 30%; inactive = below that, where a call was filed. Only a part is listed here, and it is no random draw. Entries without a call were filed so in the source.

biological target: D(2) dopamine receptor (Homo sapiens) (UniProt P14416); assay: HTS Assay for Allosteric Antagonists of the Human D2 Dopamine Receptor: Primary Screen for Antagonists; conditions: HEK293 TREx D2 cells, calcium flux, dopamine EC80; at 10 µM; stronger effect = higher value; note: 0% is about no effect
Procedure, shortened: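 Read-out: kinetic calcium fluorescence (1 cycle/s) in inducible HEK293 T-REx D2 cells after an EC80 dopamine addition that followed 180 s compound preincubation. Loss of the dopamine response indicates antagonism.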

UniProt P14416, sequence (P14416 whole entry, looked up): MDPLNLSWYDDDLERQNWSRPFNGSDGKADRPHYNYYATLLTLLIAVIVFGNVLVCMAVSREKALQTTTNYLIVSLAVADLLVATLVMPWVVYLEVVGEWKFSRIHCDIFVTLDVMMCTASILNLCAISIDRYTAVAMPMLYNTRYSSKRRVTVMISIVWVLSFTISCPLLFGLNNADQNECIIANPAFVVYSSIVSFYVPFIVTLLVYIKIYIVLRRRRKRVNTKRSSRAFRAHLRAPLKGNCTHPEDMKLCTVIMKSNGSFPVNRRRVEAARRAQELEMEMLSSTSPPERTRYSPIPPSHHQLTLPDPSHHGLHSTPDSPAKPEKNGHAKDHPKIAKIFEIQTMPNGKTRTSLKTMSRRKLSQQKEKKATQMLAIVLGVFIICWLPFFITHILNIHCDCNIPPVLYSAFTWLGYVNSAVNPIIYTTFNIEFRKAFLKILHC

| SMILES | inhibition |
| --- | --- |
| CCOC(=O)C1CCN(S(=O)(=O)c2cnc[nH]2)CC1 | active: 34.9% |
| Cc1cc(C(=O)NCc2cccc(Br)c2)c2c(C)nn(-c3ccccc3)c2n1 | 16.8% |
| Cc1ccc(NC(=O)c2ccc(CNS(=O)(=O)c3ccc4c(c3)C(C)(C)C(=O)N4C)cc2)cc1C | -8.08% |
| CC(=O)N1c2ccc(S(=O)(=O)NCC3CCC(C(=O)Nc4ccc(C)c(C)c4)CC3)cc2CC1C (stereo unspecified) | -5.76% |
| O=C(NCc1ccccc1Cl)c1ccc(Cn2c(SCc3ccccc3)nc3cccnc32)cc1 | -0.401% |
| CCc1ccccc1NC(=O)c1ccc2c(SCC(=O)O)c3c(nc2c1)CCC3 | 3.72% |
| Cc1ccccc1Cn1c2ccccc2c2cnn(CC(=O)NCC(C)c3ccccc3)c(=O)c21 (stereo unspecified) | -1.7% |
| CCOc1ccc(C2c3c(oc4ccc(C)cc4c3=O)C(=O)N2CCCN(C)C)cc1 (stereo unspecified) | 14.9% |
| CSc1ccc(CCNC(=O)C(C)n2nc(C)c3sc4ccccc4c3c2=O)cc1 (stereo unspecified) | 7.52% |
| CCOC(=O)C1CCN(C(=O)c2ccc(NC(=O)c3nsc4ccccc34)cc2)CC1 | -14.6% |
| COc1cc(OC)c(NC(=O)c2nn(-c3ccc(C)cc3)c(=O)c3c2c2ccccc2n3C)cc1Cl | -4.57% |
| O=C(Nc1cccc(C(=O)N2CCN(c3cccc(Cl)c3)CC2)c1)c1nsc2ccccc12 | -13.8% |
| CC(=O)c1nnn(-c2ccc(C)cc2Cl)c1C | -1.49% |
| CC(C)Oc1cccc(C2CC(=O)Nc3cc4c(cc32)OCO4)c1 (stereo unspecified) | -4.93% |
| O=C(CCn1cnnn1)Nc1cc(C(F)(F)F)cc(C(F)(F)F)c1 | -0.895% |
| CC(=O)c1ccc(Nc2ccc3cc(S(=O)(=O)N4CCCC4)ccc3n2)cc1 | -7.16% |
| COc1cc(NC(=O)CSc2nccn2C)cc(OC)c1OC | -9.89% |
| COc1ccc2c(c1)c1c(c(=O)n(-c3ccc(OC)c(OC)c3)c(=O)n1Cc1ccccc1F)n2C | -8.99% |
| CC(C)CCn1nnc2sc(-c3ccccc3)cc2c1=O | 4.73% |
| CCCCSCCCNC(=O)c1cn(C)c2ccc(S(=O)(=O)N3CCCCCC3)cc2c1=O | -16.7% |
| O=C(NCCS(=O)(=O)N1CCN(c2ccc(F)cc2)CC1)c1cccc(C(F)(F)F)c1 | -7.87% |
| Cc1ccc(Cl)cc1N1CCN(C(=O)CCCn2c(=O)[nH]c3ccc(Br)cc3c2=O)CC1 | -6.46% |
| CN(C)c1ccc(CNC(=O)c2ccc(NC(=O)N3CCCCc4ccccc43)cc2)cc1 | 1.79% |
| N#CC1(c2ccccc2)CCC(NCCc2ccccc2)CC1 (stereo unspecified) | active: 45.6% |
| COc1ccc(-n2c(SCC(=O)Nc3cccc(C)c3C)nc3c([nH]c4ccccc43)c2=O)cc1 | 11% |
| N#Cc1c(-n2ncnc2-c2cccc(Br)c2)sc2c1CCCCC2 | 8.52% |
